Data as given in US12043658B2, “Conjugate comprising an active MMP-9-binding peptide” (Daiichi Sankyo Company, Limited, priority 2017, dated 2024).

Tests used:
[1] = molecular target: T1, pro human MMP-9 (pro-hMMP-9(cat)_His6) (Homo sapiens, UniProt P14780); assay: Immunoprecipitation with pro human MMP-9 enzyme active domain; format: binding; conditions: Protein G beads, detection in Elu lane
T1 construct: a propeptide (Ala20-Arg106), an enzyme active domain (Phe107-Pro449) and a His tag; made in house; host or cells: FreeStyle 293F
Experimental: (§1) With M91005-Fc-01 prepared in (7-2) and pro-hMMP-9(cat)_His6 and active hMMP-9(cat)_His6 prepared in (2-1), the binding activity was evaluated by an immunoprecipitation method. 3 μg of the active MMP-9-binding peptide derivative and 1.5 mg of Dynabeads™ Protein G for Immunoprecipitation (Thermo Fisher Scientific) were mixed, and reacted at room temperature for 30 minutes. After washing, 0.39 μg of pro human MMP-9 enzyme active domain or 0.63 μg of active human MMP-9 enzyme active domain was added, and the mixture was reacted at 4° C. for 1 hour. After separating the beads with a magnet, the supernatant fraction (FT) was recovered. […] The added human MMP-9 enzyme active domain (Inp), FT and Elu were subjected to SDS-PAGE, and the binding activity was assessed by detection with Biotinylated Human MMP-9 Antibody (R&D Systems; BAF911) and Streptavidin-HRP Conjugate (GE Healthcare; RPN2280). […]
(§2) When the beads linked to M91005-Fc-01 were used, pro-hMMP-9(cat)_His6 was not detected in the Elu lane, while active hMMP-9(cat)_His6 was detected in the Elu lane. In contrast, when the beads not linked to M91005-Fc-01 were used, pro-hMMP-9(cat)_His6 and active hMMP-9(cat)_His6 were not detected in the Elu lanes (FIG. 14(A)).

[2] = molecular target: T2, pro mouse MMP-9 (pro-mMMP-9(cat)_His6_FLAG_Avi) (Mus musculus, UniProt P41245); assay: Immunoprecipitation with pro mouse MMP-9 enzyme active domain; format: binding; conditions: Protein G beads, detection in Elu lane
T2 construct: a propeptide (Ala20-Arg107), an enzyme active domain (Phe108-Pro449), a FLAG tag; made in house; host or cells: FreeStyle 293F
T2 sequence (P41245 108-449): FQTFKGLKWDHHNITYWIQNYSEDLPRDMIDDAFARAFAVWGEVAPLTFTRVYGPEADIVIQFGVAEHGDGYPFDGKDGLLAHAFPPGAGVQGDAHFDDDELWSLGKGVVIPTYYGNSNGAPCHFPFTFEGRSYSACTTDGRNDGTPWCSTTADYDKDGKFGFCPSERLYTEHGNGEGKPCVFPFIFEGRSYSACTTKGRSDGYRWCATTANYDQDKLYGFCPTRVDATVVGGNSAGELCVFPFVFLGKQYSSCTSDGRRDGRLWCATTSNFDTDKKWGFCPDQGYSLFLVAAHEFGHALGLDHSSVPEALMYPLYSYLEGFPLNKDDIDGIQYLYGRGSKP
Experimental: (§3) In the same way, using M91005-Fc-01 prepared in (7-2), and pro-mMMP-9(cat)_His6_FLAG_Avi and active mMMP-9(cat)_FLAG_Avi prepared in (2-2), the binding activity was evaluated by an immunoprecipitation method. Samples for evaluation were subjected to SDS-PAGE, and the binding activity was evaluated by detection using Mouse MMP-9 Antibody (R&D Systems; AF909) and Peroxidase AffiniPure F(ab′)2 Fragment Donkey Anti-Goat IgG(H+L) (Jackson ImmunoResearch Inc.; 705-036-147).
(§4) When M91005-Fc-01-bound beads were used, pro-mMMP-9(cat)_His6_FLAG_Avi was not detected in the Elu lane, while active mMMP-9(cat)_FLAG_Avi was detected in the Elu lane. In contrast, when the beads not linked to M91005-Fc-01 were used, pro-mMMP-9(cat)_His6_FLAG_Avi and active mMMP-9(cat)_FLAG_Avi were not detected in the Elu lanes (FIG. 14(B)).

[3] = molecular target: T3, active human MMP-9 (active hMMP-9(cat)_His6) (Homo sapiens, UniProt P14780); assay: Immunoprecipitation with active human MMP-9 enzyme active domain; format: binding; conditions: Protein G beads, detection in Elu lane
T3 construct: an enzyme active domain (Phe107-Pro449) and a His tag; made in house; host or cells: FreeStyle 293F
Experimental: as §1, §2

[4] = molecular target: T4, human MMP-9 (active hMMP-9(cat)_His6) (Homo sapiens, UniProt P14780); assay: Human MMP-9 inhibitory activity of active MMP-9-binding peptide derivatives (substrate peptide); format: biochemical; conditions: 0.6 nM active hMMP-9(cat)_His6
T4 construct: an enzyme active domain (Phe107-Pro449) and a His tag; made in house; host or cells: FreeStyle 293F
Experimental: The substrate peptide MOCAc-KPLGL-A2pr (Dnp)-AR-NH2 (SEQ ID NO: 30 (FIG. 46)) (PEPTIDE […], INC.; 3226-v) was dissolved in water to 1 mM, and diluted with an assay buffer (50 mM Tris-HCl, 200 mM NaCl, 2 mM CaCl2, pH 7.5) to use at a final concentration of 2.5 to 10 μM. Fifty μl each of the active hMMP-9(cat)_His6 diluted with the assay buffer and the active MMP-9-binding peptide were mixed, and reacted at 37° C. for 1 hour. Then, 100 μl of the substrate diluted with the assay buffer was added, and fluorescence signals (excitation 328 nm/emission 393 nm) were measured with Enspire (PerkinElmer, Inc.). The final concentration of active hMMP-9(cat)_His6 was 0.4 nM, and the final concentration of the active MMP-9-binding peptide was 0.5 to 25 nM. For reactions and measurements, a ProteoSave™ SS96F black plate (Sumitomo Bakelite Co., Ltd.) was used.
According to the method described in (4-1), human MMP-9 inhibitory activity of each of the binding peptides was evaluated with 0.6 nM final concentration of active hMMP-9(cat)_His6 and 0.0015 to 100 nM final concentration of each active MMP-9-binding peptide (FIGS. 11(A), 12(A), and 13(A)).

[5] = molecular target: T5, active mouse MMP-9 (active mMMP-9(cat)_FLAG_Avi) (Mus musculus, UniProt P41245); assay: Immunoprecipitation with active mouse MMP-9 enzyme active domain; format: binding; conditions: Protein G beads, detection in Elu lane
T5 construct: an enzyme active domain (Phe108-Pro449), a FLAG tag; His tag (before the propeptide) (N, cleaved yes); made in house; host or cells: FreeStyle 293F
T5 sequence (P41245 108-449): T2 sequence (P41245 108-449)
Experimental: as §3, §4

T1 sequence (P14780 20-449): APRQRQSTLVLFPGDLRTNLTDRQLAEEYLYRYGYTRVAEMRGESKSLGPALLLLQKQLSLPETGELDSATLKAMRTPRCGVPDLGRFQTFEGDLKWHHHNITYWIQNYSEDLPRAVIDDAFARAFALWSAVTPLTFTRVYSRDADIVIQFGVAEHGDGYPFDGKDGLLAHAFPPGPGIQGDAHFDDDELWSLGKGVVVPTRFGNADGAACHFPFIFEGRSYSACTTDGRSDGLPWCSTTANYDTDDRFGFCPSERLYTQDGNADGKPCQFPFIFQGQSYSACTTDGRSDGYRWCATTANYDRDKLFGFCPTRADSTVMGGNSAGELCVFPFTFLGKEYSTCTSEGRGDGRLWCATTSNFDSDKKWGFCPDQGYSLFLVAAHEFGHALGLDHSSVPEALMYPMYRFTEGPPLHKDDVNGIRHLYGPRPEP
T4 sequence (P14780 107-449): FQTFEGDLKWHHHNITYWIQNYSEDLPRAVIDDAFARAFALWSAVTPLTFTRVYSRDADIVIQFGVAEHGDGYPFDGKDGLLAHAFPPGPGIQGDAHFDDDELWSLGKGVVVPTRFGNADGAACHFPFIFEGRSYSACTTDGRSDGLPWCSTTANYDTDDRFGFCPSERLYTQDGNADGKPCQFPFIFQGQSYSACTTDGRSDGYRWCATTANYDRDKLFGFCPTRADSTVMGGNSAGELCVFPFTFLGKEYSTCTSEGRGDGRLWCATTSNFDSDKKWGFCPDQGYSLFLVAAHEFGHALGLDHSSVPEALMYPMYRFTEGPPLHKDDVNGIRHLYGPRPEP
T3 sequence (P14780 107-449): as above

B1: M91005-Fc-01: Fc conjugate: Stag+linker 1, M91005, C-terminal 6-mer, G4S linker and human IgG1 Fc (protein)
chain: GSGMKETAAAKFERQHMDSPDLGTDDDDKAMADIGSANSDPQFGLFSKYRTPNCRKRGGPSCQMSYNPVCGSDMSTYANECTLCMKIREGGHNIKIIRNGPCGASAAAGGGGS[… human IgG1 Fc …]
binding to pro human MMP-9 by immunoprecipitation [1]: does not bind to pro human MMP-9 | binding to pro mouse MMP-9 by immunoprecipitation [2]: does not bind to pro mouse MMP-9 | binding to active human MMP-9 by immunoprecipitation [3]: specifically binds to active human MMP-9 | human MMP-9 inhibitory activity IC50 compared with parent [4]: M91005-Fc-01 and M91005 are equivalent | binding to active mouse MMP-9 by immunoprecipitation [5]: binds specifically to active mouse MMP-9
